# Experimental data as given in the supplement of paper PMC4466236.
# The full ranking holds about 33,000 sequences; the median of “E-score (dimensionless, -0.5 to 0.5)” is about -0.058, and the highest 2% start at about 0.35. This is one part of the list.
# Test system: MvaT
# Test: PBM 8-mer E-score (mean of HK and ME arrays) (E-score (dimensionless, -0.5 to 0.5)); higher = stronger relative binding preference; most listed sequences are background and not binding sites
# Summary of the method: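 Reported values are rank-based E-scores, taken as the mean of two universal arrays and parsed with a custom script. Each 8-mer score falls between -0.5 and 0.5. The arrays, ME and HK, were double-stranded 60-mers with a constant 25-mer primer region and a variable 35-mer region covering all 8-mers. They were probed, by an earlier protocol, with full-length P. aeruginosa MvaT carrying an N-terminal glutathione S-transferase fusion.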
row,Sequence,PBM 8-mer E-score
1,CCGGAACG,-0.242
2,AAGGATCT,-0.168
3,AGCAGGAA,-0.195
4,ATAGACTG,0.0341
5,CGAAACTC,-0.0967
6,ATCCGAAT,0.0444
7,CTGTGATA,0.143
8,AGTAGACG,-0.121
9,ACGCTATC,-0.15
10,AATACTAC,0.271
11,CCTCCGTC,-0.266
12,GAAGTGTA,0.218
13,CCCAGGAC,-0.177
14,GATTCCAA,-0.0728
15,GCGTGCCA,-0.237
16,ATACTATC,0.237
17,TATGACCA,-0.0439
18,CGTGTAAG,-0.0124
19,ACAGGAGC,-0.145
20,AACCTCTA,-0.0272
21,CTGTTTTC,0.0105
22,AGGTTGAG,-0.177
23,TGTCCGAA,-0.0954
24,ATAATGAC,0.326
25,CTGCGCCA,-0.0838

row,Sequence,PBM 8-mer E-score
1,AACTTCGC,0.26
2,CTTACTCA,0.0388
3,AGCTCAAT,-0.169
4,AGTAGAGC,-0.132
5,GTGCGGTA,-0.0966
6,CCAGCAGG,-0.279
7,AGGTCTGC,-0.272
8,ATAGAAAC,0.0947
9,AACGTATC,0.1
10,CCGGTACC,-0.202
11,AACTGGAG,-0.107
12,GTTTAAAC,0.406
13,ACAGGACG,-0.0421
14,GTAAGGAC,-0.0545
15,GTAACGGA,0.0141
16,AAGAGCTT,-0.115
17,ACGGATGC,-0.159
18,TGGATCAA,-0.0646
19,GCATACCA,-0.104
20,ACCCCCGA,-0.346
21,ACCCATGA,-0.0853
22,GGACGTAA,0.0586
23,GGGAACTA,-0.0248
24,CACGGAGC,-0.202
25,CCAAATCA,0.0474

row,Sequence,PBM 8-mer E-score
1,GAGCCCGC,-0.222
2,ATCGCATC,-0.116
3,GGCTCCAA,-0.166
4,AGAGTGGC,-0.265
5,GATGAAGA,-0.134
6,ATAGACCC,-0.172
7,CAGTCGAC,-0.088
8,AGTCTGTA,-0.0134
9,AAACTAAA,0.357
10,ACAGCTAC,-0.15
11,CTAATGTA,0.23
12,GAAGAAAC,0.0632
13,GGCTAACC,-0.249
14,GCTCGTCA,-0.159
15,CATCGCTA,-0.108
16,TGTAAACA,0.0992
17,CCGGAAAG,-0.0519
18,ATAACGCA,0.266
19,GTAGGTAA,0.0597
20,TAACCACA,0.157
21,ACGGTCAT,-0.000811
22,CGGGAAAG,-0.177
23,ACATGTAC,0.243
24,CGCATTTC,0.0897
25,CTCTGACC,-0.287

row,Sequence,PBM 8-mer E-score
1,CTTCTGTC,-0.223
2,AACGTGAA,0.148
3,GGTCATAC,-0.148
4,GCCCCTCA,-0.212
5,ATCAGCGA,-0.101
6,CTTATGGA,0.0194
7,AATAGCTC,0.0378
8,ATCGATCG,-0.0319
9,ATGATGGA,0.0108
10,CGACACGC,-0.11
11,CAAGCTTC,-0.186
12,ACGGAACA,-0.116
13,ACCGGCTG,-0.285
14,GCGACGTA,-0.102
15,ACCGCGAA,-0.00867
16,CATACCCC,-0.15
17,GTTATCAA,0.171
18,CTTACTGC,0.0294
19,CCAATAAC,0.207
20,GCTACGGA,-0.233
21,CAACACGC,-0.19
22,CGCCCATC,-0.117
23,CGTGAGTC,-0.285
24,ACGCCTAA,-0.105
25,ACCCCCAA,-0.334

row,Sequence,PBM 8-mer E-score
1,AGACTTCG,-0.204
2,ACTAATAA,0.399
3,CGCGTACG,-0.0728
4,AAACCTCC,-0.167
5,AGTTCTGC,0.0769
6,AGACCTTG,-0.213
7,CGATCTAG,0.0189
8,ACTCCGAT,-0.0513
9,ATGGGCTC,-0.105
10,CTAATCCC,-0.0591
11,CAGGCTGG,-0.163
12,ATCCCGGC,-0.17
13,CTATCGGA,-0.0671
14,AAGCACAC,-0.0919
15,CTAGACCC,-0.273
16,ATTTCCGA,0.168
17,TGTTTCAA,0.125
18,GCAATATA,0.414
19,AAGTCTGC,-0.0807
20,AAAGCGCG,0.0487
21,CTGGAGTA,0.045
22,CTGTGCGA,-0.103
23,AAACAGCA,0.0994
24,AACAAAGA,0.275
25,TGCCAGCA,-0.0639

row,Sequence,PBM 8-mer E-score
1,GTCGTGAA,-0.22
2,GCGGTACC,-0.107
3,GAGATCAC,-0.14
4,AGAAGTAC,0.144
5,AAAGTAAT,0.373
6,AACACACA,0.187
7,TGCGCAAA,0.17
8,GAATTAGC,0.0672
9,TCACAGCA,0.0394
10,AGCGACCG,-0.243
11,CAACAGGG,-0.00285
12,AACGGCGG,0.00417
13,ATAACGAA,0.341
14,CCGTACGG,-0.29
15,AAAGTATA,0.41
16,ACAGTGGG,-0.0167
17,CTTGTTCA,-0.0697
18,AATAATTG,0.372
19,CAAGCACA,-0.179
20,ACCTCCGC,-0.228
21,CAGACCAA,-0.055
22,CAAGGTTA,-0.0496
23,CGCAATGA,0.0722
24,ATCAGTAA,0.164
25,CTTCTTCA,-0.0388

row,Sequence,PBM 8-mer E-score
1,GGTCGACC,-0.236
2,GCAATAGC,0.0498
3,GCAAAATA,0.198
4,CATGCCCG,-0.172
5,ATGCGTCG,-0.0193
6,TAAGAATA,0.265
7,AATGATAT,0.21
8,GTGCCTAA,-0.0518
9,GACGGCTA,-0.189
10,AGGGACAT,-0.206
11,AGAATAAA,0.255
12,ACAGAGTG,-0.126
13,CCTTTAGA,-0.0288
14,CAACAACG,0.0584
15,CCGATAGA,0.0276
16,ATCGTGAA,0.0237
17,ACGGTATC,-0.216
18,CAGTAAAA,0.218
19,AACGGCCC,-0.241
20,CCAGAAAA,-0.0593
21,CTAATGAC,-0.0523
22,CCGTGGTA,-0.0164
